# Results from the supplement of paper PMC3334620.
# Whole data set: some 33,000 sequences, median “E-score (-0.5 to 0.5)” near -0.053, cut for the highest 2% near 0.37. The list shows a part of the results.
# Target: Hap1 (UniProt P0CE41)
# Assay: PBM E-score (8-mer binding enrichment) (E-score (-0.5 to 0.5)); higher = stronger / more preferred TF binding; most listed sequences are background and not binding sites
# Conditions: protein concentration: 200 nM; construct: GST-DNA-binding domain
# How it was run: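 Each ungapped eight-base word and its reverse complement, pooled, received an E-score from the Universal PBM Analysis Suite. Underlying scans, normalised with masliner, recorded fluorescent anti-GST bound to GST-tagged yeast transcription factors. These were applied at about 100-200 nM to universal all-10-mer Agilent arrays double-stranded by primer extension.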
# Sequence of UniProt P0CE41 (P0CE41 whole entry): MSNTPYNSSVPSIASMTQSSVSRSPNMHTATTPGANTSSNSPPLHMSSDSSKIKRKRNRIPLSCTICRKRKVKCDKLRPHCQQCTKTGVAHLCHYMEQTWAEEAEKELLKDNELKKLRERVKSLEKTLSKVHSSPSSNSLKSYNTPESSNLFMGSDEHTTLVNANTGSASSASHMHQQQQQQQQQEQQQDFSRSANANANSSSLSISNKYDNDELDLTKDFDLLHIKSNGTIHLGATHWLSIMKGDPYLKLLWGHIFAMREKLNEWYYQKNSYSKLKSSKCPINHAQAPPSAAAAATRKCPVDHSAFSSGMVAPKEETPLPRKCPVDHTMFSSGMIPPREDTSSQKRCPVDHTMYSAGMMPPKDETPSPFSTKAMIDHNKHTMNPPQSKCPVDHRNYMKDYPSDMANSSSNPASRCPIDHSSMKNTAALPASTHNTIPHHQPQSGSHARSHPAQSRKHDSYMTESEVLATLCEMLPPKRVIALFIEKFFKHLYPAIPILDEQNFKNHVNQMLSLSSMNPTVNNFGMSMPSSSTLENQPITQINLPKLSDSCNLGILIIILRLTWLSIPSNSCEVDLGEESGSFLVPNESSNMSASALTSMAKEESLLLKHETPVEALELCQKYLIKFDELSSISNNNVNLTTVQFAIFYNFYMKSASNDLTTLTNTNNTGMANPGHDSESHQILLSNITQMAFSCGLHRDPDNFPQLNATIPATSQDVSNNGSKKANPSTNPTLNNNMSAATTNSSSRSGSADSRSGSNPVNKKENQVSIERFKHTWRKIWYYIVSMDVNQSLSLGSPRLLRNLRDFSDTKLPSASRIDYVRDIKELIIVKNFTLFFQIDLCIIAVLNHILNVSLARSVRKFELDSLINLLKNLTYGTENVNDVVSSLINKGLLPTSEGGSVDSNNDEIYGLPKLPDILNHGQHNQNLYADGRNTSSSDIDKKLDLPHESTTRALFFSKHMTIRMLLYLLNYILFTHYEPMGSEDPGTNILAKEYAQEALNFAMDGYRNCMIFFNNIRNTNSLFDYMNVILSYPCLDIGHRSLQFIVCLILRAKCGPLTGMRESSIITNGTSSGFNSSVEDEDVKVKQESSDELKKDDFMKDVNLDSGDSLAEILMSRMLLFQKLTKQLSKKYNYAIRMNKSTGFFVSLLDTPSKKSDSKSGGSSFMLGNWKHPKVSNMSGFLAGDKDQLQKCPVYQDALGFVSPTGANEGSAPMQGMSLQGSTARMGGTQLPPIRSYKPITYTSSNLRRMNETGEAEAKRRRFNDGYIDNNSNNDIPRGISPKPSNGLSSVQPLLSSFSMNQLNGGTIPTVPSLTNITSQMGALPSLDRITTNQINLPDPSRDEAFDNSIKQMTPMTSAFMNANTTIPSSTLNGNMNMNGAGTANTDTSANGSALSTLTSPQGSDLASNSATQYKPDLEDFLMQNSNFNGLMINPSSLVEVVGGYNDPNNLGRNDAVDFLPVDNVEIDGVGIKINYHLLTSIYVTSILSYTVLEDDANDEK
row,Sequence,PBM E-score
1,GTGTCTCA,-0.187
2,GAGGTCCA,-0.0572
3,CAAACTGG,-0.224
4,ACGGGGAT,0.383
5,CACCCTCG,-0.0066
6,AACGAATA,-0.0397
7,GCAGTAGC,-0.133
8,TTGGAAAA,-0.222
9,AGGCAATA,-0.181
10,CTTGGGTC,-0.126
11,AGCTGTTG,-0.172
12,TCGAGTAA,-0.183
13,AGGCGCCT,-0.158
14,ATGAGAAG,-0.185
15,ACGCGAGC,0.0186
16,CCCCCCGC,-0.113
17,GGCAGGCC,0.00635
18,GCTGTGCA,-0.127
19,CAAAGGTG,-0.242
20,GGCCAGCA,-0.0771
21,AATCCTAT,0.204
22,CCAGGTTC,-0.153
23,GGAGACAA,0.22
24,CCCAATCC,-0.0192
25,CCATCAGC,-0.226

row,Sequence,PBM E-score
1,CTTTCCTC,-0.145
2,GCGACCCA,0.0347
3,AGAGGATA,-0.198
4,ATGATCCG,0.3
5,AGTGGTAC,-0.295
6,ACGTTCCG,0.208
7,CCTGCCAG,-0.22
8,GTTCCGGA,0.383
9,AAAACGAC,-0.275
10,ATGCAGCG,0.039
11,AGAATAGG,-0.0338
12,TATTGTGA,-0.176
13,AGCTTCGC,-0.156
14,CGTCCTAG,-0.145
15,AAAGACTA,-0.0408
16,ATCTAATA,-0.113
17,CAGCTATC,0.0454
18,CCCCATCA,-0.0633
19,ACTAGACA,-0.0952
20,CGTAGATC,0.132
21,ATCCCCAT,0.132
22,ATGTATGC,0.0573
23,CCGTACGC,0.208
24,CAAGGGAG,-0.0781
25,AAGCCGGT,0.332

row,Sequence,PBM E-score
1,GCGGGAGC,-0.0693
2,AACACTAT,0.0204
3,AGTGTCAC,-0.07
4,AGAGTAAG,-0.121
5,CCGTGCAA,0.0301
6,GGATGACC,0.0942
7,AGCAGCAC,-0.294
8,TACAACTA,0.00211
9,ATGAAACA,-0.158
10,AGGGGTCG,-0.249
11,CTGCTGAA,-0.233
12,CTGTCGTC,-0.117
13,GACCAGCC,0.171
14,CAGCGTTC,-0.0658
15,AATGTATA,0.104
16,GCATGGAA,0.117
17,ACGTGACA,-0.248
18,ACTGGACA,-0.00994
19,GACCGAGC,0.375
20,ACTACTCT,-0.139
21,ACACCGAA,0.282
22,AGCGTCTA,-0.221
23,GTCCGTCA,0.246
24,AGAAACCT,-0.00042
25,CAGTCAGC,-0.156

row,Sequence,PBM E-score
1,CTTCAAAA,-0.22
2,AAAATGGA,0.0497
3,ACTCAATA,-0.0871
4,GAATCGAA,-0.142
5,CATGTACG,0.093
6,GCTTTATA,0.0999
7,GCAATAAC,0.16
8,GACCGACA,0.359
9,ATAGTATA,0.0133
10,AATAGGAC,-0.0969
11,AATCGTAC,0.0382
12,ATTGCACG,-0.0316
13,CTCCCTGC,-0.254
14,ACACCTCG,0.0907
15,GAGGACGA,-0.0666
16,TGATGAAA,-0.166
17,GCAGGAAA,-0.114
18,CCGGTAGC,0.341
19,CTCAGTTA,0.0135
20,CGAAGAAC,-0.0615
21,AGTCTCTA,-0.332
22,AATTAGTA,-0.0499
23,GTGCGAGA,-0.179
24,CGGTCGAG,0.204
25,CTCTCTCC,-0.0741

row,Sequence,PBM E-score
1,CCCTATGA,-0.236
2,CCATTGCG,0.00154
3,CTCATTAA,-0.0946
4,TCATTGGA,-0.0948
5,AAGGCACT,-0.193
6,TGAGACAA,-0.0521
7,ATGCGGTG,-0.162
8,CCTTGAAA,-0.242
9,GAACCATA,-0.0291
10,ATAAGCAA,-0.108
11,TGAGTACA,-0.0351
12,GAAAGCCC,0.188
13,GCTCATAC,-0.0326
14,ATGAAGAA,-0.136
15,AGTCTATG,-0.304
16,ATCAAGCA,-0.154
17,TATGACGA,-0.0552
18,CTGCGGTC,0.148
19,CCAGTATA,0.055
20,CCTTAAAA,-0.236
21,ATCCATAG,0.0507
22,GGCTGGTA,-0.0605
23,CCATCGGG,0.25
24,AGGTGCAG,-0.115
25,AGTTGTGC,-0.166

row,Sequence,PBM E-score
1,CCGATTCC,0.405
2,ATACTGGC,-0.224
3,AGAGCCCA,-0.13
4,GAATTCTC,0.0388
5,GATCCACC,-0.0286
6,AACGTGGT,-0.116
7,CAGTAGAG,-0.409
8,CTGGCAAG,-0.207
9,AGCTTATG,-0.244
10,ATTATCTC,0.231
11,CGGTTCGA,0.212
12,AGAGCCGG,0.263
13,TAAGGAAA,-0.0149
14,ATTGTTAC,-0.0281
15,GAGTCGGA,0.315
16,GGTGCAAC,0.198
17,AGGACGCG,-0.072
18,CACGACCG,0.104
19,AGCTCGCG,0.0191
20,ACGCCGAG,0.352
21,AAAAGACG,-0.167
22,ACAAGTTA,0.0246
23,ACGTCTGC,-0.197
24,GCCAGAGC,-0.2
25,AGCCCAAA,0.0481

row,Sequence,PBM E-score
1,GGCGCAAA,0.115
2,CCCGCCAA,0.107
3,CGGGCGGC,0.353
4,ACAGCAGT,-0.0935
5,ATGTTTCC,0.19
6,AAACTCAA,-0.125
7,CGAAGCGA,0.0956
8,CGTGGGTC,-0.0907
9,AGAGGGAC,-0.245
10,AAGTGACT,-0.244
11,CCTGGTGA,-0.171
12,CAATCTCC,0.264
13,AACCCGAC,0.32
14,ATTCGGGC,0.308
15,CTACTCAC,-0.179
16,ACTCCACA,-0.183
17,AACGGTTG,-0.155
18,AGACGGAA,0.164
19,ACGAATTA,-0.0927
20,TCCCTAAA,0.0112
21,GAGTATAA,0.0661
22,AAAGTGAA,-0.0435
23,GCGCGGAC,0.267
24,GTAATTTA,0.0329
25,CCCTGGTC,-0.177

row,Sequence,PBM E-score
1,CCCAATGC,-0.125
2,ACCTGAAT,-0.104
3,ACCAAAGG,-0.282
4,CGTTTTAA,-0.0609
5,CTAGATTC,-0.0392
6,CTAACTCA,-0.177
7,ATCGAACA,0.0509
8,CGGATGGC,0.179
9,ACATTTTA,-0.213
10,GCGTTCGA,-0.0723
11,ACAGGAAC,-0.241
12,CGGGCTTC,0.307
13,GGCGACGA,-0.133
14,TTCATAAA,-0.184
15,AAATGCGA,0.124
16,ACGTGGCA,-0.19
17,CCGCCTCG,0.114
18,ACCCACGG,0.0424
19,AGGTTGTA,-0.112
20,CAATTGTC,-0.108
21,ACACTACG,0.00345
22,GACTTATA,0.0475
23,GCATTGTA,-0.0934
24,ATCTCGGA,0.385
25,AGTGTCGA,-0.0327

row,Sequence,PBM E-score
1,GGAAGAAC,0.196
2,AATGTCGA,-0.22
3,CGACGACA,-0.214
4,AGGAGTCA,-0.179
5,CGTTCGAG,-0.141
6,ACCACGGC,0.058
7,GCTGTGAC,-0.223
8,ACGACTAC,-0.322
9,CTATAGGA,-0.132
10,TCTGTTCA,-0.263
11,ATCCTCCA,-0.224
12,CAACAGTG,0.00153
13,ACACCCCA,-0.251
14,CGATTGAG,0.011
15,ACTATGAG,-0.0992
16,GAATTATA,0.0684
17,CTACTACA,-0.0229
18,ATAAAAGG,0.0186
19,GAAATTTA,-0.0236
